According to ChEMBL document CHEMBL4888484, “Replenishing the malaria drug discovery pipeline: Screening and hit evaluation of the MMV Hit Generation Library 1 (HGL1) against asexual blood stage Plasmodium falciparum ,using a nano luciferase reporter read-out” (2022):
The whole screen tested about 150,000 compounds, of which about 540 (0.36%) showed an effect of 50% or more. The list shows a part of the results.

What follows are compounds tested on Plasmodium falciparum (assay: Primary screen in NF54 nanoGlo assay, in single point, at 2uM, 72h; a lower Z score goes with more inhibition). Details: timepoint 72 hour.
Type: functional, Erythrocyte

Row | Compound | % Inhibition [%] | Z score
1 | Cc1ccccc1CNC(=O)c1csc(-c2ccnc(N3CCOCC3)c2)n1 | -3 | 0.36
2 | CC1COCC1NC1c2ccccc2CC1O (stereo unspecified) | -1 | 0.17
3 | O=C(c1ccnc2[nH]c(CC3CC3)nc12)N1CCOCC12CCC2 | -3 | 0.48
4 | Cc1cc2n(n1)CCC(=O)N2CC(=O)NC1CCCC1 | -13 | 1.27
5 | CNC(=O)c1[nH]nc2c1CN(CC(=O)Nc1cccc(C)c1C)CC2 | -5 | 0.76
6 | COCC1CCCN(C(=O)CCC2(Cc3ccc4ccccc4c3)CCC(=O)N2)C1 (stereo unspecified) | 4 | -0.53
7 | Cc1cc(C)n(CCN(C)C(=O)CCN2CCCCCC2=O)n1 | -8 | 1.4
8 | C[C@@H](CC(=O)OCC(C)(C)C)N1CCCCC1=O | -4 | 0.52
9 | Cc1cnc(C(C)NC(=O)N2CCOCC2c2ccccc2)s1 (stereo unspecified) | -13 | 1.07
10 | Cc1ccc(N(C)CC2(CO)CC2)nn1 | -4 | 0.5
11 | Cc1ccc(S(=O)(=O)c2cn(Cc3ccccc3)c3cc(N4CCCCC4)c(F)cc3c2=O)cc1 | -24 | 2.28
12 | CC(=O)N[C@@H]1C[C@H](Cc2ccccc2)O[C@H](c2cc(C(C)(C)C)[nH]n2)C1 | -2 | 0.27
13 | Cn1c([C@@H]2CCCO2)nc2cc(NC(=O)CC3CCCC3)cc(C(=O)NCCN3CCOCC3)c21 | -2 | 0.31
14 | CCN=C(NCC)NCc1cc2sccc2s1 | 4 | -0.7
15 | O=C(C1CCCCCCC1)N1CCCC1 | 3 | -0.46
16 | Cn1c(Cn2ccnc2)nnc1C1CCN(C(=O)c2cccc(F)c2)CC1 | -14 | 2.56
17 | CC(Cc1cccs1)NS(=O)(=O)CC1CCN(C(=O)OCc2ccccc2)C1 (stereo unspecified) | 0 | -0.08
18 | COc1ccc(OC)c(-c2cnc(-c3ccc(CNC(=O)c4ccc(C(F)(F)F)c(F)c4)cc3)[nH]2)c1 | 16 | -2.15
19 | O=C(c1cnn2ccc(C3CCN(S(=O)(=O)Cc4ccccc4Cl)CC3)cc12)N1CCCC1 | -10 | 1.17
20 | Cc1c(C(=O)NCCc2ccc(Cl)s2)cnn1C | 1 | -0.28
21 | COc1ccc(C(=O)C(=O)Nc2c(F)cc(F)cc2-c2ccccc2)cc1 | -3 | 0.32
22 | OC1(Cc2ccc(F)cc2F)CC2CCC(C1)N2c1nc(C(F)(F)F)cs1 (stereo unspecified) | 0 | 0.03
23 | Cc1cc(NC(=O)NCC2CCN(C)CC2)cc(N2CCN(C)CC2)c1 | -18 | 2.32
24 | CC(=O)N1C[C@H]2CCN(C(=O)c3cc(F)ccc3F)C[C@@]2(CO)C1 | -5 | 0.74
25 | C#CCOC(=O)CCNC(=O)C1CCCC1 | -7 | 0.88
26 | O=C(c1cn[nH]c1)N1CCC[C@H](Nc2cccc(Br)c2)C1 | -17 | 2.19
27 | N#Cc1cnn(-c2ccc(NC(=O)C3CCC3)cc2)c1N | -9 | 1.08

Row | Compound | % Inhibition [%] | Z score
28 | CC(C)[C@@H](NS(=O)(=O)C1CC1)c1nc(-c2ccncc2)no1 | -3 | 0.3
29 | CC(C)CC(C)OC(=O)C1CC(=O)N(C2CCS(=O)(=O)C2)C1 (stereo unspecified) | 10 | -0.98
30 | O=C1C[C@H](NS(=O)(=O)N2CCCCC2)CN1CCCc1ccccc1 | -23 | 2.07
31 | CN1CCN(C[C@H]2CC[C@@H](Cc3ccc(OC(F)(F)F)cc3)O2)CC1 | -2 | 0.43
32 | COc1ccc2c(c1)CCc1c(C(=O)Nc3ccc(C(C)C)cc3)n[nH]c1-2 | -1 | 0.19
33 | O=C(N[C@H]1CCOC[C@@H]1OCc1cscn1)c1cccc(-c2ncc[nH]2)c1 | -13 | 1.67
34 | COCC1(CNc2nccc(N)n2)CCCC1 | 7 | -1.07
35 | COCCOC(=O)N1CCC2(CC1)CC(=O)N(Cc1ccc(Cl)cc1)C2 | 4 | -0.78
36 | Cc1ccccc1CNC(=O)[C@]1(C)Cn2nc(-c3ccco3)cc2C(=O)N1Cc1ccccc1C | 7 | -1.09
37 | Cn1ccnc1CN1C[C@@H](F)C[C@H]1CNc1ncnc2c1CCCCC2 | -4 | 0.8
38 | Cc1cc(COC(=O)c2cscn2)nc(C)n1 | -7 | 0.94
39 | CCOC1CC(NC(=O)OC(C)(C)C)(C(=O)O)C1(C)C (stereo unspecified) | 1 | -0.26
40 | CCc1cc(C(=O)N2CCOc3c(F)ccc(F)c32)n(C)n1 | -10 | 1.81
41 | COc1ccccc1CCNC(=O)c1nc(C)ns1 | -10 | 1.59
42 | Cc1cc(C2CCN(c3ncnc(-c4cccc(F)c4)n3)CC2)[nH]n1 | -14 | 1.17
43 | COc1cc2ncn([C@H]3[C@@H]4OC[C@@H](O4)[C@@H](NCc4nccs4)[C@@H]3O)c2cc1OC | 0 | 0.05
44 | c1ccc(NCCCN[C@H]2COCc3ncccc32)cc1 | -9 | 1.22
45 | C[C@]1(O)CCN(c2nc(-c3ccccc3)no2)C[C@H]1Cc1ccccc1 | 4 | -0.53
46 | CCC[C@H]1CN(C(=O)c2cc3c(cc2C)OCCO3)C[C@@H]1N | -7 | 0.95
47 | C[C@H]1CN(C(=O)c2ccc(C#N)s2)CC2(CCC2)O1 | -5 | 0.97
48 | Cc1nonc1CC(=O)N[C@H]1COCC[C@@H]1Oc1ccccn1 | 14 | -1.78
49 | CC(C)NC(=O)N1CCC[C@H]1C(=O)N1CC(CC(F)F)C1 | -8 | 1.57
50 | Cc1ccc(-n2nc(C)c3nc(CCC(=O)NCCN(C)C)c(=O)n(C)c32)cc1 | 9 | -1.32
51 | Cc1nn(C)c(C)c1-c1cc(-c2c(F)cccc2Cl)nc(CC(N)=O)n1 | 1 | -0.25
52 | C[C@H]1CN2C=NC(N3CCN(C(=O)c4ccccc4)CC3)=CC2=N1 | -3 | 0.63
53 | COc1ccc(-n2cc(-c3cccc(OC)c3)nc2NC(=O)CN(CC2CC2)C(=O)C(C)C)cc1 | -7 | 1.05
